This is an account of results in US9950026B2, “Methods for reducing oxidative damage” (Cornell Research Foundation, Inc., priority 2004, dated 2018).

Where a SMILES comes first, the peptide text is derived from it. Where no end group is shown, it is not given here. [ ]: non-standard residue; d: D form. The star is where a group is joined. Dansyl = CN(C)c1cccc2c(S(=O)(=O)*)cccc12; Dmt = Cc1cc(O)cc(C)c1C[C@H](N)C(=O)O; 2Abz = Nc1ccccc1C(=O)O; Dap = NC[C@H](N)C(=O)O

The test system of series [1] is Caco-2 cells. As to the kind of experiment: Subcellular distribution of fluorescent analog (CLSM with TMRM). Format: in vitro ADME, human.
For series [2], the system named is Caco-2 cells. The series can be described thus: Uptake of fluorescent analog by confocal laser scanning microscopy. The class given is in vitro ADME, human.
Series [3] concerns isolated mouse liver mitochondria. The series can be described thus: H2O2 production by isolated mitochondria, luminol chemiluminescence. The class given is biochemical. As to conditions: spontaneous, SS peptides 100 μM. The procedure:
Because mitochondria are a major source of ROS production, the effect of SS-02 on H2O2 formation in isolated mitochondria under basal conditions as well as after treatment with antimycin, a complex III inhibitor was examined. Livers were harvested from mice and homogenized in ice-cold buffer and centrifuged at 13800×g for 10 m. The pellet was washed once and then re-suspended in 0.3 ml of wash butter and placed on ice until use H2O2 was measured using luminol chemiluminescence as described previously (Y. Li, H. Zhu, M. A. Trush, Biochim. Biophys. Acta 1428, 1-12 (1999)). 0.1 mg mitochondrial protein was added to 0.5 ml potassium phosphate buffer (100 mM, pH 8.0) in the absence or presence of SS peptides (100 μM). 25 mM luminol and 0.7 IU horseradish peroxidase were added, and chemilumunescence was monitored with a Chronolog Model 560 aggregometer (Havertown, Pa.) for 20 min at 37° C. The amount of H2O2 produced was quantified as the area under the curve (AUC) over 20 min, and all data were normalized to AUC produced by mitochondria alone.
H2O2 was measured using luminol chemiluminescence as described previously (Y, Li, H. Zhu, M. A. Trush, Biochim. Biophys. Acta 1428, 1-12 (1999)). 0.1 mg mitochondrial protein was added to 0.5 ml potassium phosphate buffer (100 mM, pH 8.0) in the absence or presence of SS-31. 25 mM luminol and 0.7 IU horseradish peroxidase were added, and chemilumunescence was monitored with a Chronolog Model 560 aggregometer (Havertown, Pa.) for 20 min at 37° C. The amount of H2O2 produced was quantified as the area under the curve (AUC) over 20 min, and all data were normalized to AUC produced by mitochondria alone.

Series [4] in a line: Scavenging of H2O2, luminol-induced chemiluminescence. The note with it: H2O2 4.4 nmol, 20 min, 37° C. Format: biochemical. The procedure: Effect of SS-02 and SS-05 (Dmt-D-Arg-Phe Orn-NH2) on H2O2 as measured by luminol-induced chemiluminescence, 25 μM luminol and 0.7 IU horseradish peroxidase were added to the solution of H2O2 (4.4 nmol) and peptide, and chemiluminescence was monitored with a Chronolog Model 560 aggregometer (Havertown, Pa.) for 20 min at 37° C.

In series [5] the test system is Human LDL (low density lipoprotein). As to the kind of experiment: LDL oxidation induced by CuSO4 (conjugated dienes). The class given is biochemical. The note with it: peptides 100 μM. The procedure:
Human LDL (low density lipoprotein) was prepared fresh from stored plasma. LDL oxidation was induced catalytically by the addition of […] CuSO4, and the formation of conjugated dienes was monitored at […] for 5 h at 37° C. (B. Moosmann and C. Behl, Mol Pharmacol., 61, 260-268 (2002)).

In the case of `Cc1cc(O)cc(C)c1C[C@H](N)C(=O)N[C@H](CCCNC(=N)N)C(=O)N[C@@H](Cc1ccccc1)C(=O)N[C@@H](CNC(=O)c1ccccc1N)C(N)=O` [[Dmt^1,AtnDap^4]DALDA, Dmt-D-Arg-Phe-atnDap-NH2] (H-[Dmt][dR]F[Dap](2Abz)-NH2; N-terminus assumed), in series [1], the distribution nucleus/cytoplasm entry is reported as “completely excluded from the nucleus” and the “distribution to mitochondria (overlap with TMRM)” value was “to mitochondria was demonstrated”. The “incubation time after which uptake was shown” value in series [1] (0.1 μM, 37° C.) amounted to 15 min.
In the case of `Cc1cc(O)cc(C)c1C[C@H](N)C(=O)N[C@H](CCCNC(=N)N)C(=O)N[C@@H](Cc1ccccc1)C(=O)N[C@@H](CNS(=O)(=O)c1cccc2c(N(C)C)cccc12)C(N)=O` [[Dmt^1,DnsDap4]DALDA, Dmt-D-Arg-Phe-dnsDap-NH2] (H-[Dmt][dR]F[Dap](Dansyl)-NH2; N-terminus assumed), in series [2], the “intracellular distribution of fluorescence” value is listed as “diffuse throughout the cytoplasm but was completely excluded from the nucleus”. Moreover, the “uptake into cells (CLSM)” value in series [2] (0.1 μM, 1 h, 37° C.) is “confirmed the uptake”.
As for A[dR]FK-NH2 [SS-22], the “amount of H2O2 generated (AUC over 20 min)” value in series [3] was “no effect”.
On the same count and under the same terms, for Cyclohexyl-D-Arg-Phe-Lys-NH2 [SS-21] the value was “no effect”.
As for Dmt-D-Arg-Phe Orn-NH2 [SS-05], the “luminol response (H2O2 scavenging)” value in series [4] is reported as “dose-dependently inhibited”. The “rate of LDL oxidation (rate of formation of conjugated dienes)” value in series [5] is recorded as “reduced rate of LDL oxidation”.
Turning to F[dR][Dmt]K-NH2 [SS-30], the “amount of H2O2 generated (AUC over 20 min)” value in series [3] is given as “significantly reduced”. In addition, the “rate of LDL oxidation (rate of formation of conjugated dienes)” value in series [5] is “reduced rate of LDL oxidation”.
